PubChem BioAssay AID1159614 (National Center for Advancing Translational Sciences (NCATS), 2016)
Among all 45,000 compounds or so, about 65 (0.1%) were called active. The call rests on the fitted dose curve; in most records, active means well fitted activation curve with a large enough effect; inconclusive means small, poorly fitted or top-dose-only effect; inactive means no such curve, though single readings can be large or run the other way. The list shows a part of the results.

Biological target: Galactocerebrosidase (Homo sapiens) (UniProt P54803)
UniProt P54803, sequence (P54803 whole entry, looked up): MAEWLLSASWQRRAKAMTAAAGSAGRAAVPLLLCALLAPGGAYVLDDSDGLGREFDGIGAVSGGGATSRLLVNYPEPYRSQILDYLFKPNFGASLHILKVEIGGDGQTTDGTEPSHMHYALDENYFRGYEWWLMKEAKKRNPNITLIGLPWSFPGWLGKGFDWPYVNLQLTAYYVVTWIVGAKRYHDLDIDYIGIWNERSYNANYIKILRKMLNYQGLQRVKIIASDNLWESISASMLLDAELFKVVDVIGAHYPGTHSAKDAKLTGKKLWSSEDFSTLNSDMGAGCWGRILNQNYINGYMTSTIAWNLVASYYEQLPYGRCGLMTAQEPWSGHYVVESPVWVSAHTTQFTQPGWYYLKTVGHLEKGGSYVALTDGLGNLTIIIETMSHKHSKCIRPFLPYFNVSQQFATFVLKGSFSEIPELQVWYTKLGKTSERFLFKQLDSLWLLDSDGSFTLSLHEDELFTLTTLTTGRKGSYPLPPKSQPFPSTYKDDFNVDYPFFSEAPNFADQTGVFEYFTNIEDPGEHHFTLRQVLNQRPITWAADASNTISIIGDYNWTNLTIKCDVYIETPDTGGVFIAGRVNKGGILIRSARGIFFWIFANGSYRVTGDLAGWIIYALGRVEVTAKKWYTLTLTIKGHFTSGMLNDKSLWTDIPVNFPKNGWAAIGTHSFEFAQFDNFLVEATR
Experiment: A Novel Cell-Based Assay to Identify Small Molecules for B -Galactocerebrosidase; further: 0% is about no effect; nearly all actives have a fitted effect of over 65% in size
Details: 145M-Twi-hGALC-G270D cells (Twitcher mouse brain line with human GALC G270D), HMU-beta-Gal fluorescence, 48 h; series mostly up to 57.5 µM; activation: at the top concentration
Method in brief: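 Live 145M-Twi cells (Twitcher mouse brain-derived, GALC-null) stably expressing human GALC-G270D, with a wild-type GALC line, were compound-treated. Residual GALC activity was then read as fluorescence from 0.1 mM final HMU-β-gal at pH 5.2; higher signal means activation.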

SMILES	activation
COc1ccc(OC)c(NC(=O)CN(C)S(=O)(=O)c2ccc(C(=O)N3CCOCC3)s2)c1	inactive: -6.4%
CC(C)COc1ccc(C(=O)Nc2ccc(S(=O)(=O)Nc3ncccn3)cc2)cc1	inactive: -22.8%
O=C(NCc1cccc(Cl)c1)c1cc2ccc3cccnc3c2[nH]1	inactive: -9.4%
CCC(C(=O)Nc1cccc(Cl)c1C)n1nc(-c2ccc(C)cc2)ccc1=O (stereo unspecified)	inactive: -7.15%
CCCc1nc2sc3c(N4CCC(C)CC4)ncnc3c2c2c1CCCC2	inactive: -13.9%
CC(C)COc1cccc(C(=O)Nc2ccc(-c3nc4ncccc4o3)cc2)c1	inactive: -5.4%
CC1CCN(C(=O)Cn2cc(SCC(=O)NCc3ccccc3Cl)c3ccccc32)CC1	inactive: -0.899%
CCC(=O)Nc1cc(C)c(O)c(-c2nc3ncccc3o2)c1	inactive: -12.5%
Cc1cc(C)c(NC(=O)CSc2nc3ccccc3nc2N2CCCCC2)c(C)c1	inactive: -4.47%
Cn1c(=O)n(-c2ccc(Br)cc2F)c(=O)c2sc3ccccc3c21	inactive: -17.6%
COc1ccc(Cn2c(=O)[nH]c3cc(C(=O)N4CCN(c5cccc(Cl)c5)CC4)ccc3c2=O)cc1	inactive: -1.39%
CCCN1C(C(=O)c2ccccc2)=C(OC(=O)COc2ccccc2)c2ccccc2S1(=O)=O	inactive: -15.7%
O=C(NC1CCCCCC1)c1ccc2c(c1)sc1nc(-c3ccc(F)cc3)cn12	inactive: -5.02%
COc1cc2c(=O)c(S(=O)(=O)c3ccc(F)cc3)cn(Cc3ccc(Cl)cc3)c2cc1OC	inactive: 2.65%
CCOC(=O)c1ccc(CN(Cc2ccc(F)cc2)S(=O)(=O)c2cc(C(=O)Nc3cccc(C(F)(F)F)c3)ccc2F)cc1	inactive: -6.29%
CCOc1ccc(NC(=O)CN2C(=O)C(c3ccccc3)=NC23CCC(C)CC3)cc1 (stereo unspecified)	inactive: -19.7%
Cc1cccc(N2CCN(S(=O)(=O)c3ccc4c(c3)CCCN4C(=O)C3CCC3)CC2C)c1 (stereo unspecified)	inactive: -9.41%
Cc1ccc(Cl)cc1NC(=O)C(C)n1nnc2sc3c(c2c1=O)CCCC3 (stereo unspecified)	inactive: -14%
COc1ccc(C2C(C(N)=O)=C(C)Nc3nc(CCCO)nn32)c(OC)c1 (stereo unspecified)	inactive: 3.85%
CC1(C)O[C@@H]2C[C@H]3[C@@H]4CCC5=CC(=O)CC[C@]5(C)[C@@]4(F)[C@@H](O)C[C@]3(C)[C@]2(C(=O)CCl)O1	inactive: -6.45%
O=C(Nc1ccc(C(=O)OCc2cc(=O)n3c4c(sc3n2)CCCC4)cc1)c1ccccc1	inactive: 1.04%
CN1C(=O)c2ccccc2Sc2ccc(NC(=O)N3CCN(c4ccccc4F)CC3)cc21	inactive: -16.1%
CCCOc1ccc(C(=O)Nc2cc(-c3nc4cc(C)cc(C)c4o3)ccc2C)cc1	inactive: -2.8%

SMILES	activation
Cc1ccc(-c2noc(-c3ccc(N4CCCCC4)c([N+](=O)[O-])c3)n2)cc1	inactive: -12.8%
Clc1ccc(CCNC(c2nnc(-c3ccccc3)o2)c2ccccc2Cl)cc1 (stereo unspecified)	inactive: -14.8%
CC(C)NC(=O)C1CCN(C(=O)N2CCOc3ccc(Cl)cc32)CC1	inactive: -16.2%
CCn1c(SCc2ccccc2Cl)nc(=O)c2c(C(=O)OC)cc(C3CC3)nc21	inactive: -15%
CNC(=O)COc1ccc(NC(=O)c2ccc(-c3nn(C)c(=O)c4ccccc34)cc2)cc1	inactive: -7.18%
CCOC(=O)c1c(NC(=O)c2cc(=O)c3c(C)cc(C)cc3o2)sc(C(C)=O)c1C	inactive: -15%
CC(=O)Nc1nonc1-c1nnc(SCc2ccc(Cl)cc2)n1C	inactive: -7.66%
Cc1nn(S(=O)(=O)c2ccc(Cl)cc2)c(C)c1S(=O)(=O)N1CCCCCC1	inactive: -4.64%
O=C(O)[C@H](O)[C@@H](O)[C@H](O[C@@H]1O[C@H](CO)[C@H](O)[C@H](O)[C@H]1O)[C@H](O)CO	inactive: -16%
Cc1cc(C)c2c(-n3cccc3)c(C(=O)NCCCN3CCCCC3C)sc2n1 (stereo unspecified)	inactive: -17.5%
COc1cc(-c2noc(-c3cc(C(C)C)[nH]n3)n2)cc(OC)c1OC	inactive: -10.9%
NS(=O)(=O)c1ccc(CCNC(=O)c2nc(SCc3ccccc3F)ncc2Cl)cc1	inactive: -10.7%
COc1cccc(C2C(C(=O)Nc3ccccc3OC)=C(C)Nc3nc4ccccc4n32)c1 (stereo unspecified)	inactive: -15.4%
CCc1ccccc1Nc1ncnc2c1nc1n2CCCC1	inactive: -7.7%
Cc1ccc2cccc(NC(=O)c3ccc(-c4ccc(Br)cc4)o3)c2n1	inactive: -12.4%
Cc1cc(=O)c2cc(C(=O)Nc3ccccc3)ccc2[nH]1	inactive: -3.95%
COc1cccc(N2C(=O)N(CC(=O)NCc3cccc(OC)c3OC)c3ccccc3S2(=O)=O)c1	inactive: -11.3%
CCc1ccc(-n2c(-c3ccccc3)c(C)n3c4c(=O)n(C)c(=O)n(C)c4nc23)cc1	inactive: 2.32%
Cc1ccc(O)c(-n2nc3ccccc3n2)c1	inactive: -8.52%
Cc1cn2c(=O)cc(COc3ccccc3NC(=O)c3ccccc3C)nc2s1	inactive: -12.3%
Cc1ccc(-c2csc(/C(C#N)=C/c3ccccc3Cl)n2)cc1	inactive: -5.51%
O=C(Nc1ccc(F)cc1)c1cccn1-c1nnc(N2CCCCC2)s1	inactive: -15.3%
CC(=O)O[C@H]1C[C@@H]2CC[C@@H]3[C@H](CC[C@@]4(C)[C@H]3C[C@H]([N+]3(C)CCCCC3)[C@@H]4OC(C)=O)[C@@]2(C)C[C@@H]1N1CCCCC1	inactive: -20.1%
